In PubChem BioAssay AID488969 (Vanderbilt High Throughput Screening Facility, 2010):
Whole data set: some 110,000 compounds, median “z-score” near -0.1, cut for the highest 2% near 2. The list shows a part of the results.

Each molecule was assayed against Metabotropic glutamate receptor 8 (Rattus norvegicus) (UniProt P70579) (assay: mGluR8 Gi/Go-coupled signaling modulation – cell-based, rat, thallium flux, HTS, primary screen (AID 488969)). Settings: HEK293 rat mGluR8, GIRK (G protein-gated inwardly rectifying potassium channel) thallium flux, FluoZin2; at 10 µM; stronger effect = higher value; submaximal glutamate (EC20) added with thallium.
UniProt P70579, sequence (P70579 whole entry, looked up): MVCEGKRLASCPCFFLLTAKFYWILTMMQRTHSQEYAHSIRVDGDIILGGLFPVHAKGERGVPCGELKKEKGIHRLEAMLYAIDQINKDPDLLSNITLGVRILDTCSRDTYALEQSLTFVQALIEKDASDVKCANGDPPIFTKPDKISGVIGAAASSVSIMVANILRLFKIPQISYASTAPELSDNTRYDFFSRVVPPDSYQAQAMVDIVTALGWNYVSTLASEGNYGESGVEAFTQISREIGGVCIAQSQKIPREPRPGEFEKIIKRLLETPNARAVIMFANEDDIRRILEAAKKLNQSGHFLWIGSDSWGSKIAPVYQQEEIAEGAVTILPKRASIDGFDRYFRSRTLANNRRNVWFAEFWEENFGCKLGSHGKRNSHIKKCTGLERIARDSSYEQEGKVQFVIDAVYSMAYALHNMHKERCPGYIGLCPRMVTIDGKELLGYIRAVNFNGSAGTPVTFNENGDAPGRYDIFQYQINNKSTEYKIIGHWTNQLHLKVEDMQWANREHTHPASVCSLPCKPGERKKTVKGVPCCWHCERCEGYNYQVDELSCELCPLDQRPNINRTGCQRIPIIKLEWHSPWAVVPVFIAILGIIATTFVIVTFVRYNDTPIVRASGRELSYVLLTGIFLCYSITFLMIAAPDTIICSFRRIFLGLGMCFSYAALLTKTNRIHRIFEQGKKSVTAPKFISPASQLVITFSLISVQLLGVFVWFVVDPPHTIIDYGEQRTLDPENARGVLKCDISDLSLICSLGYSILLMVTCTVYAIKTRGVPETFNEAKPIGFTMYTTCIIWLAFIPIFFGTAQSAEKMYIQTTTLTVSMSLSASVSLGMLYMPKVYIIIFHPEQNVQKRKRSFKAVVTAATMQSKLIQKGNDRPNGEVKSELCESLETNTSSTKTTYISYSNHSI
`C(=C\c1ccccc1)/CSc1nnc(-c2ccccn2)n1Cc1ccco1` showed a z-score of -1.42.
In the case of `CC(C)P(=O)(c1cccc(C(=O)O)c1)C(C)C`, the z-score is reported as -0.0351.
`Nc1nnc(CCC2CCCCC2)s1` gave a z-score of 0.128.
In the case of `CCOC(=O)/C(=C/c1ccc(Cl)cc1)NC(=O)c1ccco1`, the z-score is reported as -0.468.
For `O=S(=O)(NCCNS(=O)(=O)c1ccc(F)cc1)c1ccc(F)cc1`, the z-score was -0.266.
`Cc1c(C(=O)N2CCC(C)CC2)sc2ncnc(N3CCN(c4ccccc4)CC3)c12` was tested, and the z-score was -0.332.
Molecule `Cc1ccccc1Oc1nnc(-c2cccs2)c2ccccc12` has a z-score of -0.216.
Molecule `Cc1ccc(N=c2c([N+](=O)[O-])nn(-c3ccccc3)n2O)c(C)c1` has a z-score of 0.0179.
For `Cc1cc(NCCO)nc(N2CCOCC2)n1`, the z-score was -0.11.
`CCOC(=O)c1csc(NC(=O)CSc2nnnn2-c2cccc(OC)c2)n1` was tested, and the z-score was -0.239.
With `C/C(=N\NC(=O)c1ccccc1)c1ccc(-n2ccnc2)cc1` the z-score was 2.25.
`CC1(C(=O)CSc2ncn[nH]2)CCC(=O)O1` (stereo unspecified) was tested, and the z-score was -0.24.
For `CCNC(=S)NNC(=O)c1csc(CC)c1`, the z-score was -0.163.
Work on `Cc1ccccc1N(CC(=O)N1CCN(c2ccccc2)CC1)S(C)(=O)=O` yielded a z-score of -0.00111.
In the case of `COc1cc(CC(=O)Oc2ccc3c(c2)OCO3)cc(OC)c1OC`, the z-score is reported as 0.612.
For `O=C(Nc1nn(Cc2ccc(Cl)cc2)cc1Br)c1ccc(COc2ccccc2Cl)o1`, the z-score was -0.058.
`CCOC(=O)Cc1c(Sc2ccccc2)c2cc(C)ccc2n1C` was tested, and the z-score was -0.169.
`COc1ccc(N=C2C(=O)Nc3ccccc32)cc1` showed a z-score of -0.886.
In the case of `CC(=O)Nc1ccc(OCC(O)CNC2CCCC2)cc1` (stereo unspecified), the z-score is reported as -0.0845.
With `Cc1ccc(N(CC(=O)NC2CCCC2)C(=O)c2c(C)noc2C)cc1C` the z-score was -0.905.
Work on `CC(c1ccccn1)N(CCN(C)C)C(=S)Nc1cccc(F)c1` (stereo unspecified) yielded a z-score of -0.231.
For `Nc1c(N(C(=O)Nc2ccc(Cl)c(Cl)c2)C2CCCC2)c(=O)[nH]c(=O)n1Cc1ccccc1`, the z-score was 0.249.
Work on `CCOc1ccc(NC(=S)N/N=C(\C)Cc2ccc(OC)cc2)cc1` yielded a z-score of 1.35.
`CCCCc1cc(=O)oc2cc(C)cc(OC(C)C(=O)O)c12` (stereo unspecified) was tested, and the z-score was -0.37.
Work on `COc1ccc(-c2cc(=O)[nH][nH]2)cc1OC` yielded a z-score of -0.295.
For `CC(=O)C1C(c2ccc(Cl)cc2)NC(=O)NC1(O)C(F)(F)F` (stereo unspecified), the z-score was -0.503.
Work on `C/C(=N/Oc1nc(C)cc(C)n1)c1ccccc1` yielded a z-score of -0.437.
For `Cc1ccc2cc(C#N)c(N3CCCN(S(=O)(=O)c4ccc(F)cc4)CC3)nc2c1`, the z-score was 0.227.
Work on `O=C(COC(=O)c1ccccc1Nc1ccccc1)NCc1ccccc1` yielded a z-score of -0.246.
`S=C(Nc1ccc(Cl)cc1)N(CCCN1CCOCC1)Cc1ccco1` showed a z-score of -0.557.
Molecule `CCOC(=O)CC(NC(=O)c1ccco1)c1ccc(OC)cc1` (stereo unspecified) has a z-score of -0.109.
For `CCCOC(=O)c1cccc(NC(=O)C(C)(C)C)c1`, the z-score was 0.872.
`COc1ccc(CCn2c(-c3cc([N+](=O)[O-])cc([N+](=O)[O-])c3)nc3nc4ccccc4nc32)cc1OC` showed a z-score of -0.213.
`COc1ccc(Cn2cc3c(-c4ccc(F)cc4)nnc-3c3cc(OC)c(OC)cc32)cc1` showed a z-score of 0.539.
Molecule `FC(F)(F)c1cc(Sc2ccccc2)nc(-c2ccccn2)n1` has a z-score of -0.349.
Molecule `CCc1ccc(CSc2nccn2-c2ccccc2)cc1` has a z-score of -0.445.
`CCOC(=O)C1=C(O)CSC1=Nc1cccc(Cl)c1` was tested, and the z-score was -2.45.
`CCCCNC(=O)Nc1cc(C(F)(F)F)c[nH]c1=O` gave a z-score of 0.793.
Work on `COc1cc(NS(=O)(=O)c2ccc(NC(=O)NC3CCCCC3)cc2)nc(OC)n1` yielded a z-score of -0.233.
`S=C(NCc1ccco1)N/N=C/c1ccccc1Cl` gave a z-score of 2.22.
Molecule `COc1ccc(CN(C(=S)Nc2ccccc2)C2CC(=O)N(c3ccc(Cl)cc3)C2=O)cc1` (stereo unspecified) has a z-score of 0.0406.
Molecule `COc1ccc(/C=C(\C#N)C(=O)NCCCn2ccnc2)cc1` has a z-score of -0.164.
In the case of `CCCCOC(=O)Cn1c(=O)n(CC(=O)OCCCC)c2ccccc21`, the z-score is reported as -0.288.
Work on `Cc1cc([N+](=O)[O-])c(NC2CCCCC2)c([N+](=O)[O-])c1` yielded a z-score of -0.257.
With `CCOC(=O)c1cc2occc2n1Cc1c(F)cccc1Cl` the z-score was 0.0931.
In the case of `Cc1ccccc1C1CC(c2ccccc2)Nc2ncnn21` (stereo unspecified), the z-score is reported as -0.293.
`COc1ccc(CCC(C)Nc2cccc(C)c2)cc1` (stereo unspecified) was tested, and the z-score was -0.178.
Molecule `CCOC(=O)/C(=C/c1c2ccccc2cc2ccccc12)NC(=O)c1ccccc1` has a z-score of -0.387.
`COc1ccccc1Nc1nc(N)nc(CSc2nccc(C)n2)n1` was tested, and the z-score was 0.282.
For `Cn1nc(-c2ccc(C(=O)Nc3cccc(Cl)c3)cc2)c2ccccc2c1=O`, the z-score was 0.274.
For `COc1ccccc1OCc1nc2c3c(-c4ccccc4)c(-c4ccccc4)oc3ncn2n1`, the z-score was -0.228.
With `COc1ccc(Cc2nn3c(Cn4nnc5ccccc54)nnc3s2)cc1` the z-score was -0.0414.
`O=c1c(-c2ccnn2-c2ccc(F)cc2)cnc2n1CCS2` was tested, and the z-score was -0.339.
With `Cc1ccc(OCc2nnc(SCC(=O)Nc3ccc4c(c3)OCCO4)n2Cc2ccco2)cc1` the z-score was -0.271.
`COC(=O)CN1C(=O)CSc2ncccc21` showed a z-score of 0.767.
For `CCOc1ccc(NC(=S)N(CCCN2CCOCC2)Cc2cn(C)c3ccccc23)cc1`, the z-score was -0.232.
